Several values for one entry are separate records, joined by “and”; a condition that tells them apart may be missing. Equal values may be shown once. Over roughly 5,300 compounds, “PER2::LUC luminescence relative to vehicle control” has its median near 0.96; the highest 2% begin near 1.3. The list shows a part of the results.
System: mPer2Luc MEF
Experiment: PER2::LUC luminescence relative to vehicle control (fold of vehicle); higher = higher PER2::LUC reporter signal
Conditions: 10 µM
Procedure, shortened: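 Compounds from commercial libraries were added at 10 μM to 384-well plates seeded 48 h earlier with ~3000 mPer2Luc mouse embryonic fibroblasts per well. The cells were kept in DMEM with 10% FBS at 37 °C and 5% CO2. Luminescence was read with ONE-Glo 24 h and 30 h after treatment, then an alamarBlue viability assay was run. Values are PER2::LUC luminescence relative to vehicle control, as fold change.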

Row | SMILES | PER2::LUC luminescence (time after treatment 24 h) | PER2::LUC luminescence (time after treatment 30 h)
1 | COC(=O)C1=CCCN(C)C1 | 0.965 and 0.876 and 0.727 | 0.962 and 0.933 and 0.874
2 | Fc1ccc(C(OCCN2CCN(CCCc3ccccc3)CC2)c2ccc(F)cc2)cc1 | 0.59 and 0.26 | 0.539 and 0.22
3 | N[C@@H](CCl)C(=O)O | 0.956 | 0.934
4 | CC(C)(C)NCC(O)c1cc(Cl)c(N)c(Cl)c1 (configuration not stated) | 0.906 | 0.859
5 | COc1cc2c(cc1OC)[C@@]13CCN4CC5=CCO[C@H]6CC(=O)N2[C@H]1[C@H]6[C@H]5C[C@H]43 | 1.15 and 0.445 | 1.09 and 0.871
6 | CC(C)(c1ccc(OCC2CO2)cc1)c1ccc(OCC2CO2)cc1 (configuration not stated) | 0.988 | 0.942
7 | CC(C)N(CCNC(=O)CN1CCCC1=O)C(C)C | 0.99 | 1.07
8 | COc1cc2c(cc1OC)[C@H](C)NCC2 | 0.865 | 0.957
9 | CNCC(=O)c1ccc(O)c(O)c1 | 0.996 | 0.936
10 | O=C(NC(=O)c1c(F)cccc1F)Nc1cc(Cl)c(OC(F)(F)C(F)C(F)(F)F)cc1Cl (configuration not stated) | 1.11 | 1.15
11 | CCOC(=O)c1cc2c(cn1)[nH]c1ccccc12 | 0.973 | 0.966
12 | NNC(N)=O | 1.09 | 0.875
13 | O=C[C@H](Cl)[C@@H](O)[C@H](O)[C@H](O)CO | 0.918 | 1.14
14 | COc1ccc(Cc2nccc3cc(OC)c(OC)cc23)cc1OC | 0.68 | 0.652
15 | NCCCP(=O)(O)O | 1.06 | 1.08
16 | CNCCc1c[nH]c2ccc(O)cc12 | 0.889 | 0.932
17 | CNC1=Nc2ccc(Cl)cc2C(c2ccccc2)=[N+]([O-])C1 | 0.985 | 1.04
18 | CCC1(CC)C(=O)C=CNC1=O | 1.04 | 0.975
19 | COc1cc2c(c(OC)c1OC)-c1ccc(=O)c(O)cc1[C@@H](NC(C)=O)CC2 | 1.07 | 1.05
20 | O=C(N/N=C/c1ccc([N+](=O)[O-])o1)c1cc([N+](=O)[O-])cc([N+](=O)[O-])c1O | 0.918 | 0.876

Row | SMILES | PER2::LUC luminescence (time after treatment 24 h) | PER2::LUC luminescence (time after treatment 30 h)
21 | C[C@]12CC[C@H]3[C@@H](CC[C@@]45O[C@@H]4C(O)=C(C#N)C[C@]35C)[C@@H]1CC[C@@H]2O | 1.01 | 0.933
22 | C[C@]1(O)CC[C@H]2[C@@H]3CCC4=CC(=O)CC[C@]4(C)[C@@]3(F)[C@@H](O)C[C@@]21C | 0.978 | 1.06
23 | COc1ccc2c3c4n(c2c1)[C@H](C=C(C)C)OOC(C)(C)C[C@@H]4N1C(=O)[C@@H]2CCCN2C(=O)[C@]1(O)[C@H]3O | 1.02 | 0.995
24 | O=C1CSC(c2ccccc2Cl)c2cc(Cl)ccc2N1 (configuration not stated) | 1.04 | 1
25 | NNC(=O)c1ccc(O)cc1 | 1.08 | 1.08
26 | CN(C)NC(=O)CCC(=O)O | 1.05 | 1.02
27 | O=[N+]([O-])c1ccc([As](=O)(O)O)cc1 | 1.13 | 0.866
28 | CCN(C(C)=O)c1cccc(-c2ccnc3c(C#N)cnn23)c1 | 0.968 | 0.978
29 | NCCc1c[nH]c2ccc(O)cc12 | 0.925 | 0.97
30 | CNC(C)[C@H](O)c1ccccc1 (some centres not stated) | 1.03 | 0.928
31 | CCC(COC(=O)c1cc(OC)c(OC)c(OC)c1)(c1ccccc1)N(C)C (configuration not stated) | 0.946 and 0.824 | 0.986 and 0.789
32 | C[C@]12CC[C@H](O)CC1=CC[C@@H]1[C@@H]2CC[C@@]2(C)[C@H]1CC[C@]2(C)O | 0.959 | 0.777
33 | C/C=C(\C)C(=O)N[C@@H](c1ccccc1)[C@@H](O)C(=O)O[C@H]1C[C@@]2(O)[C@@H](OC(=O)c3ccccc3)[C@@H]3[C@]4(OC(C)=O)CO[C@@H]4C[C@H](O)[C@@]3(C)C(=O)[C@H](OC(C)=O)C(=C1C)C2(C)C | 0.467 | 0.448
34 | COc1ccc2c(c1)/C(=C/c1cnc[nH]1)C(=O)N2 | 1.04 | 1.14
35 | COc1ccc(C[C@H]2NC[C@H](O)[C@H]2OC(C)=O)cc1 | 1.15 | 1.02
36 | CCCN(CCC)CCc1ccc(O)c(O)c1 | 0.848 | 0.909
37 | CC1(C)C(C=C(Cl)Cl)C1C(=O)OCc1cccc(Oc2ccccc2)c1 (configuration not stated) | 1.08 | 0.813
38 | Cc1ccc(O)cc1.Cc1cccc(O)c1.Cc1ccccc1O | 0.934 | 0.923
39 | CCNC1(c2cccs2)CCCCC1=O (configuration not stated) | 0.834 | 0.783
40 | C[C@@H]1CC[C@H]2[C@@H](C)C(=O)O[C@@H]3O[C@@]4(C)CC[C@@H]1[C@]32OO4 | 0.995 | 1.05

Row | SMILES | PER2::LUC luminescence (time after treatment 24 h) | PER2::LUC luminescence (time after treatment 30 h)
41 | OC1(c2ccc(Cl)cc2)c2ccccc2C2=NCCN21 (configuration not stated) | 0.954 | 0.914
42 | CC[C@H]1[C@@H]2C[C@H]3[C@@H]4N(C)c5ccccc5[C@]45C[C@@H]([C@@H]2[C@H]5O)N3[C@@H]1O | 1.04 | 0.956
43 | CS(=N)(=O)CC[C@H](N)C(=O)O (some centres not stated) | 1.05 and 0.967 | 0.815 and 0.882
44 | CCC1(c2cccc(O)c2)CCCCN(C)C1 (configuration not stated) | 0.933 | 0.857
45 | CC1=CC(=O)C2=C(C)C[C@H](O)[C@@H]3[C@H](OC(=O)[C@H]3C)[C@@H]12 | 1.05 | 1.04
46 | COc1ccc(C(=O)O[C@H]2CC[C@@]3(C)[C@@H]4CC[C@H]5[C@]6(O)C[C@H](O)[C@@]7(O)[C@@H](CN8C[C@@H](C)CC[C@H]8[C@@]7(C)O)[C@]6(O)C[C@@]53O[C@]24O)cc1OC | 0.999 | 1.07
47 | CNC(C)C(O)c1ccccc1 (configuration not stated) | 0.933 | 0.942
48 | C[C@@H]1CN(Cc2ccc(F)cc2)CCN1C(=O)COc1ccc(Cl)cc1NC(N)=O | 0.403 and 0.234 | 0.333 and 0.355
49 | CC(C)(C)NCC(O)COc1cccc2[nH]c(C#N)cc12 (configuration not stated) | 0.891 | 0.75
50 | CC[C@H]1CN2CCc3cc(OC)c(OC)cc3[C@@H]2C[C@@H]1C[C@H]1NCCc2cc(OC)c(OC)cc21 | 0.0089 and 0.006 | 
51 | COc1cc([C@@H]2c3cc4c(cc3[C@H](O)[C@H]3COC(=O)[C@H]23)OCO4)cc(OC)c1OC | 0.417 and 0.292 | 0.535 and 0.517
52 | OCC(Br)(Br)Br | 1.01 | 1.06
53 | O=C1NC(=O)C(=O)C(=O)N1 | 0.993 | 0.912
54 | NC(=O)[C@H](Cc1ccccc1)NC(=O)[C@H](Cc1ccccc1)NC(=O)[C@@H]1CCCN1C(=O)[C@@H](N)Cc1ccc(O)cc1 | 0.999 | 0.889
55 | CC(C)C[C@H](CN)CC(=O)O | 0.807 | 1.1
56 | CCC(C)(C)O | 0.999 | 0.969
57 | C[C@@]1(CO)[C@H](O)CC[C@@]2(C)[C@H]1CC[C@H]1C[C@@H]3C[C@@]12CC[C@]3(O)CO | 0.752 | 0.656
58 | CC1(C(=O)O)C2CCC(O2)C1(C)C(=O)O (configuration not stated) | 1.12 | 0.846
59 | CCCN(CCC)[C@@H]1CCc2c(OC)cccc2[C@@H]1C | 0.943 | 0.875

Source: the supplement of paper PMC9334596
